In the antibiotic and cytotoxicity screens of Wong et al. (2023):
The list shows a part of the results.

What was measured:
HSkMC = human skeletal muscle cells; experiment: cytotoxicity call (relative viability < 0.9); conditions: 10 µM
HepG2 = experiment: cytotoxicity call (relative viability < 0.9); conditions: 10 µM
S. aureus RN4220 = experiment: growth inhibition call (relative growth <= 0.2); conditions: 50 µM

C[C@H](CO)N1C[C@H](C)[C@H](CN(C)S(=O)(=O)c2ccccc2)Oc2ncc(C#Cc3ccc(F)cc3)cc2C1=O
inactive: cytotoxicity call (HSkMC) | cytotoxicity call (HepG2) | growth inhibition call (S. aureus RN4220)

COc1c(O)cccc1O
inactive: cytotoxicity call (HSkMC) | cytotoxicity call (HepG2) | growth inhibition call (S. aureus RN4220)

C[C@H](CO)N1C[C@H](C)[C@H](CN(C)C(=O)C2CCCCC2)OCCCC[C@H](C)Oc2ccc(NC(=O)c3ccncc3)cc2C1=O
inactive: cytotoxicity call (HSkMC) | cytotoxicity call (HepG2) | growth inhibition call (S. aureus RN4220)

CC1(C)CC2C(=O)CCC3OC3(C)CCC21 (stereo not given)
inactive: cytotoxicity call (HSkMC) | cytotoxicity call (HepG2) | growth inhibition call (S. aureus RN4220)

COc1cccc(S(=O)(=O)N(C)C[C@H]2Oc3cc(C#CCC(C)C)ccc3S(=O)(=O)N([C@H](C)CO)C[C@H]2C)c1
inactive: cytotoxicity call (HSkMC) | cytotoxicity call (HepG2) | growth inhibition call (S. aureus RN4220)

CN1CCN([C@H](CNC(=O)C(=O)NCCN2CCOCC2)c2ccc(N(C)C)cc2)CC1
inactive: cytotoxicity call (HSkMC) | cytotoxicity call (HepG2) | growth inhibition call (S. aureus RN4220)

[N-]=[N+]=Nc1ccccc1[C@@H]1OC(c2ccc(OCCCO)cc2)=N[C@]1(CCS(=O)(=O)c1ccccc1)C(=O)NC[C@@H](O)CO
inactive: cytotoxicity call (HSkMC) | cytotoxicity call (HepG2) | growth inhibition call (S. aureus RN4220)

CCS(=O)(=O)N1C[C@]2(CCN(CC2)C(=O)Nc2c(noc2C)C)c2c(n(c3cc(ccc23)OC)C)[C@@H]1CO
inactive: cytotoxicity call (HSkMC) | cytotoxicity call (HepG2) | growth inhibition call (S. aureus RN4220)

C[C@H](CO)N1C[C@H](C)[C@@H](CN(C)Cc2ccc(C(=O)Nc3ccccc3N)cc2)Oc2c(NC(=O)Nc3ccc(C(F)(F)F)cc3)cccc2C1=O
inactive: cytotoxicity call (HSkMC) | cytotoxicity call (HepG2) | growth inhibition call (S. aureus RN4220)

C[C@H]1CN([C@@H](C)CO)C(=O)c2cccc(NC(=O)Nc3cccc4ccccc34)c2O[C@@H]1CN(C)C(=O)NC1CCCCC1
inactive: cytotoxicity call (HSkMC) | cytotoxicity call (HepG2) | growth inhibition call (S. aureus RN4220)

Cc1ccc(Cl)c(Nc2ccccc2C(=O)[O-])c1Cl.[Na+]
inactive: cytotoxicity call (HSkMC) | cytotoxicity call (HepG2) | growth inhibition call (S. aureus RN4220)

Cc1ccc(S(=O)(=O)N2C[C@@H](O)COC[C@@H]3O[C@@H](CC(=O)NCc4ccc5c(c4)OCO5)CC[C@H]32)cc1
inactive: cytotoxicity call (HSkMC) | cytotoxicity call (HepG2) | growth inhibition call (S. aureus RN4220)

C[C@H]1O[C@@H](OC[C@H]2O[C@@H](OC[C@]3(C)[C@H]4CC[C@@]5(C)[C@H](CC[C@H]6C7=CC(C)(C)CC[C@]7(C(=O)O)CC[C@@]65C)[C@@]4(C)CC[C@@H]3O)[C@@H](O)[C@@H](O)[C@@H]2O)[C@@H](O)[C@@H](O)[C@@H]1O
inactive: cytotoxicity call (HSkMC) | cytotoxicity call (HepG2) | growth inhibition call (S. aureus RN4220)

O=C(CN1CCOCC1)NCC[C@H]1CC[C@@H](NC(=O)Nc2ccccc2)[C@H](CO)O1
inactive: cytotoxicity call (HSkMC) | cytotoxicity call (HepG2) | growth inhibition call (S. aureus RN4220)

O=C(NC1=C(c2ccc(OC(F)(F)F)cc2)C(=O)c2ccccc2C1=O)c1ccc(Br)cc1
inactive: cytotoxicity call (HSkMC) | cytotoxicity call (HepG2) | growth inhibition call (S. aureus RN4220)
